Assay results taken from article PMC12820563.
Some of the results follow. The list includes weakly bound sequences.

Target: T1, MBP-FoxP3dN (UniProt Q99JB6)
T1 sequence: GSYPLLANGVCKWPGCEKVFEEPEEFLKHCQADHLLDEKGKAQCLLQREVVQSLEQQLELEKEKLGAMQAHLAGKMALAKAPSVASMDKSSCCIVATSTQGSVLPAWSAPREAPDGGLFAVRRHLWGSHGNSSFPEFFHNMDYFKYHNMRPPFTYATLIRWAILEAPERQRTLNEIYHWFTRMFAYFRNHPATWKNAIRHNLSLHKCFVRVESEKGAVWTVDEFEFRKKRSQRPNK
Assay: PD-seq (MBP pull-down with sequencing)
Settings: 20 mM Tris-HCl pH 7.5, 100 mM NaCl, 1.5 mM MgCl2, 0.4 uM protein, 0.1 uM dsDNA library, 30 min, room temperature, amylose pull-down; high values mean tight binding; double strand, one strand shown

Sequence | binding signal (RPM ratio (pull-down/input))
GATGATTGTTCTCCCAGCTGATGAATTACCTTCCTCGAGTAAACAAATTTTCCTAATCTTTCTGTTCAAGCGCCATCTAC | 0.308
GATGATTGTTCTCCCAGCTGATGAATTTCCTCTTTCGAGTAAACAAATTTTCCTAATCTTTCTGTTCAAGCGCCATCTAC | 0.263
GATGATTGTTCTCCCAGCTGATGAATTATACACCTCGAGTAAACAAATTTTCCTAATCTTTCTGTTCAAGCGCCATCTAC | 0.636
GATGATTGTTCTCCCAGCTGATGAATTTGGTTGATCGAGTAAACAAATTTTCCTAATCTTTCTGTTCAAGCGCCATCTAC | 2.12
GATGATTGTTCTCCCAGCTGATGAATTTACCTCGTCGAGTAAACAAATTTTCCTAATCTTTCTGTTCAAGCGCCATCTAC | 0.473
GATGATTGTTCTCCCAGCTGATGAATTCCACGTTTCGAGTAAACAAATTTTCCTAATCTTTCTGTTCAAGCGCCATCTAC | 0.412
GATGATTGTTCTCCCAGCTGATGAATTGACCAAATCGAGTAAACAAATTTTCCTAATCTTTCTGTTCAAGCGCCATCTAC | 0.281
GATGATTGTTCTCCCAGCTGATGAATTTACTCCCTCGAGTAAACAAATTTTCCTAATCTTTCTGTTCAAGCGCCATCTAC | 0.462
GATGATTGTTCTCCCAGCTGATGAATTAGTCTCATCGAGTAAACAAATTTTCCTAATCTTTCTGTTCAAGCGCCATCTAC | 0.661
GATGATTGTTCTCCCAGCTGATGAATTACCAGGTTCGAGTAAACAAATTTTCCTAATCTTTCTGTTCAAGCGCCATCTAC | 0.252
GATGATTGTTCTCCCAGCTGATGAATTGGAACCTTCGAGTAAACAAATTTTCCTAATCTTTCTGTTCAAGCGCCATCTAC | 0.23
GATGATTGTTCTCCCAGCTGATGAATTGCTCCGTTCGAGTAAACAAATTTTCCTAATCTTTCTGTTCAAGCGCCATCTAC | 0.423
GATGATTGTTCTCCCAGCTGATGAATTTGTGCATTCGAGTAAACAAATTTTCCTAATCTTTCTGTTCAAGCGCCATCTAC | 7.63
GATGATTGTTCTCCCAGCTGATGAATTATCTGAGTCGAGTAAACAAATTTTCCTAATCTTTCTGTTCAAGCGCCATCTAC | 0.273
GATGATTGTTCTCCCAGCTGATGAATTTTGAAGCTCGAGTAAACAAATTTTCCTAATCTTTCTGTTCAAGCGCCATCTAC | 0.372
GATGATTGTTCTCCCAGCTGATGAATTTATTTAATCGAGTAAACAAATTTTCCTAATCTTTCTGTTCAAGCGCCATCTAC | 2.19
GATGATTGTTCTCCCAGCTGATGAATTGATCCTTTCGAGTAAACAAATTTTCCTAATCTTTCTGTTCAAGCGCCATCTAC | 0.264
GATGATTGTTCTCCCAGCTGATGAATTCTGGGGTTCGAGTAAACAAATTTTCCTAATCTTTCTGTTCAAGCGCCATCTAC | 0.402
GATGATTGTTCTCCCAGCTGATGAATTGCGTCCTTCGAGTAAACAAATTTTCCTAATCTTTCTGTTCAAGCGCCATCTAC | 1.24
GATGATTGTTCTCCCAGCTGATGAATTGCTGAACTCGAGTAAACAAATTTTCCTAATCTTTCTGTTCAAGCGCCATCTAC | 0.42

Sequence | binding signal (RPM ratio (pull-down/input))
GATGATTGTTCTCCCAGCTGATGAATTGAGATTATCGAGTAAACAAATTTTCCTAATCTTTCTGTTCAAGCGCCATCTAC | 0.888
GATGATTGTTCTCCCAGCTGATGAATTCTTGATGTCGAGTAAACAAATTTTCCTAATCTTTCTGTTCAAGCGCCATCTAC | 0.416
GATGATTGTTCTCCCAGCTGATGAATTGTCCCTATCGAGTAAACAAATTTTCCTAATCTTTCTGTTCAAGCGCCATCTAC | 0.436
GATGATTGTTCTCCCAGCTGATGAATTAGCTGAGTCGAGTAAACAAATTTTCCTAATCTTTCTGTTCAAGCGCCATCTAC | 0.268
GATGATTGTTCTCCCAGCTGATGAATTTGCGAAGTCGAGTAAACAAATTTTCCTAATCTTTCTGTTCAAGCGCCATCTAC | 0.311
GATGATTGTTCTCCCAGCTGATGAATTGGTCTAATCGAGTAAACAAATTTTCCTAATCTTTCTGTTCAAGCGCCATCTAC | 0.423
GATGATTGTTCTCCCAGCTGATGAATTTAGAGAATCGAGTAAACAAATTTTCCTAATCTTTCTGTTCAAGCGCCATCTAC | 0.279
GATGATTGTTCTCCCAGCTGATGAATTTAACCGTTCGAGTAAACAAATTTTCCTAATCTTTCTGTTCAAGCGCCATCTAC | 0.312
GATGATTGTTCTCCCAGCTGATGAATTCGCGAGATCGAGTAAACAAATTTTCCTAATCTTTCTGTTCAAGCGCCATCTAC | 0.318
GATGATTGTTCTCCCAGCTGATGAATTATTCATGTCGAGTAAACAAATTTTCCTAATCTTTCTGTTCAAGCGCCATCTAC | 0.412
GATGATTGTTCTCCCAGCTGATGAATTCTGTGAATCGAGTAAACAAATTTTCCTAATCTTTCTGTTCAAGCGCCATCTAC | 0.477
GATGATTGTTCTCCCAGCTGATGAATTATCCATATCGAGTAAACAAATTTTCCTAATCTTTCTGTTCAAGCGCCATCTAC | 0.316
GATGATTGTTCTCCCAGCTGATGAATTCGCACCATCGAGTAAACAAATTTTCCTAATCTTTCTGTTCAAGCGCCATCTAC | 0.563
GATGATTGTTCTCCCAGCTGATGAATTGCAAATGTCGAGTAAACAAATTTTCCTAATCTTTCTGTTCAAGCGCCATCTAC | 0.803
GATGATTGTTCTCCCAGCTGATGAATTTCTCCGATCGAGTAAACAAATTTTCCTAATCTTTCTGTTCAAGCGCCATCTAC | 0.19
GATGATTGTTCTCCCAGCTGATGAATTTATACGGTCGAGTAAACAAATTTTCCTAATCTTTCTGTTCAAGCGCCATCTAC | 0.494
GATGATTGTTCTCCCAGCTGATGAATTCCTAGCGTCGAGTAAACAAATTTTCCTAATCTTTCTGTTCAAGCGCCATCTAC | 0.41
GATGATTGTTCTCCCAGCTGATGAATTAGACATATCGAGTAAACAAATTTTCCTAATCTTTCTGTTCAAGCGCCATCTAC | 0.566
GATGATTGTTCTCCCAGCTGATGAATTAGCAACCTCGAGTAAACAAATTTTCCTAATCTTTCTGTTCAAGCGCCATCTAC | 1.78
GATGATTGTTCTCCCAGCTGATGAATTTTGGCCTTCGAGTAAACAAATTTTCCTAATCTTTCTGTTCAAGCGCCATCTAC | 2.06
